91 compounds from PubChem BioAssay AID463173 (ICCB-Longwood Screening Facility, Harvard Medical School, 2010) can be followed below.

Structures are written as SMILES. About 1,700 (3.3%) of roughly 52,000 compounds were called active. Cut-off read from the data, not from the text of the source: active = survival mostly below about 52% (no sharp cut-off); inactive = mostly above about 56%. The list shows a part of the results.

The assay deals with Wild type. Description: growth inhibition of S. aureus wild type versus tarO mutant, primary screen, teichoic acid synthesis inhibitors, RN4220, OD600 (AID 463173). The note with it: S. aureus RN4220 wild type/DeltatarO growth, OD600, 18 h, stronger effect = lower value, screened at 18.75 µg/mL (by protocol).
Regarding `CN(C)S(=O)(=O)c1ccc2c(c1)N(CC(=O)NCc1cccc(Br)c1)C(=O)CS2`, the survival was inactive: 77%. The value for `O=C(NCc1ccco1)C1CCN(C(=O)N2CCOc3ccc(Cl)cc32)CC1` was inactive: 94%. The value for `O=C1CC(c2nnc(Cc3ccc(Cl)cc3)o2)CN1c1ccccc1` (stereo unspecified) was inactive: 103%; that for `CCn1c(=N)c(C(=O)NC2CCCCC2)cc2c(=O)n3cccc(C)c3nc21` was inactive: 125%. The value for `O=c1cc2nc(-c3cccs3)nc(SCCOc3ccc(Cl)cc3)n2[nH]1` was inactive: 77%; that for `COc1ccccc1-c1nnc2n(CCc3ccccc3)c(=O)c3ccccc3n12` was inactive: 67%. As to `Cc1ccc(-c2nnc(NC(=O)c3ccc4c(c3)OCCO4)o2)c(C)c1`, the survival was inactive: 72%.

Consider `Cc1ccc(C)c(Cn2c(=O)n(Cc3ccc(C(=O)NC4CCN(Cc5ccccc5)CC4)cc3)c(=O)c3ccccc32)c1`, for which the survival is inactive: 77%. As for `COc1cccc(-n2cc(C(=O)Oc3cccc(C(F)(F)F)c3)c3ccccc3c2=O)c1`, the survival is inactive: 136%. Consider `Cc1ccc(O)c(NC(=O)c2noc3c2CCCCC3)c1`, for which the survival is inactive: 70%. `CC(=O)N1c2ccccc2CC1C(=O)N1CCN(c2cccc(Cl)c2)CC1` (stereo unspecified): the survival was inactive: 77%.

For `O=C(CC1C(=O)N(c2ccc(F)cc2)C(=O)N1Cc1ccc2c(c1)OCO2)Nc1ccc(F)cc1` (stereo unspecified), the survival is inactive: 72%. The value for `CCOc1ccc(OCC)c(NC(=O)C(NS(=O)(=O)c2ccc(Br)s2)c2ccccc2)c1` (stereo unspecified) was inactive: 89%; that for `COc1cccc(CNC(=O)CN2C(=O)CCCc3ccccc32)c1OC` was inactive: 135%. The value for `CCN(c1ncnc2c1cnn2-c1cc(Cl)ccc1C)C1CCCCC1` was inactive: 80%; that for `CCc1ccc(NC(=O)c2ccc3oc(=O)n(Cc4ccccc4)c3c2)cc1` was active: 1%. The value for `Nc1c(-c2nc(-c3cccs3)no2)nnn1-c1cccc(F)c1` was inactive: 95%.

Turning to `Cc1ccc(C)c(CN2C(=O)c3ccccc3S(=O)(=O)c3ccc(C(=O)N4CCCC4)cc32)c1`, the survival was inactive: 82%.

For the compound `CCc1c(C)nc2c(OC)cccc2c1Cl`, the survival is inactive: 113%. The value for `CCc1sc(Nc2ccc(C)cc2Br)nc1-c1cc2cccc(OC)c2oc1=O` was inactive: 68%; that for `CC(=O)NCCNc1nc2c(-c3ccc(C)cc3)nnn2c2ccccc12` was inactive: 82%; that for `CCOC(=O)CSc1nc2c(sc3ccccc32)c(=O)n1Cc1ccc(C)cc1` was inactive: 80%. The value for `CNC(=O)C1CCN(Cc2cc3ccccc3n2Cc2ccccc2C)CC1` was inactive: 77%; that for `CCCN(CCC)C(=O)Cn1c(=O)n(-c2ccc(C)cc2)c(=O)c2ccc(C(=O)NCc3ccccc3Cl)cc21` was inactive: 86%; that for `Cc1ccc(-c2cn3c(n2)sc2cc(C(=O)NCc4cccs4)ccc23)cc1` was inactive: 87%.

Regarding `Cc1oc(-c2ccccc2)nc1CSc1nnc(C)n2c1cc1sccc12`, the survival was inactive: 83%. For the compound `CCOCCCNC(=O)CCC(=O)NNc1nc2ccccc2c2nc(-c3ccccc3)nn12`, the survival was inactive: 81%.

For the compound `O=C(CCc1nnc2n(Cc3ccccc3Cl)c(=O)c3ccccc3n12)Nc1ccc(F)c(F)c1`, the survival was inactive: 89%.

On to `Cc1ccc(-n2nc(CO)c(C(=O)NCC(c3ccccc3)c3ccccc3)n2)cc1`, for which the survival is inactive: 95%. Under `O=C(NCc1cccc(Br)c1)C1CCN(C(=O)c2sccc2-n2cccc2)CC1` stands inactive: 91%.

With `CCCCNC(=O)Cn1c(=O)cc(C)c2c(C)nn(-c3ccc(CC)cc3)c21`, the survival is inactive: 66%. Under `CCC1CN(C(=O)N2CCC(C(=O)NCCc3ccc(C)cc3)CC2)c2ccccc2O1` (stereo unspecified) stands inactive: 86%; under `Oc1cccc(N=Cc2c[nH]c3ccccc23)c1`, inactive: 99%; under `COc1cccc(Nc2cc(-c3ccccc3)nc(C)n2)c1`, inactive: 49%. For the compound `Cc1ccc(C)c(N2CCN(C(=O)c3cc(S(=O)(=O)N4CCCC4)c[nH]3)CC2)c1`, the survival is inactive: 112%. The value for `CCCOc1ccc(C(=O)Nc2ccc(NC(=O)c3cccc(Cl)c3)cc2)cc1` was inactive: 80%; that for `CCOC(=O)c1cc2oc(C)cc2n1CC(=O)N(C)C1CCCCC1` was inactive: 115%. On to `Cc1cccc(Nc2ncnc3c2cnn3C)c1C`, for which the survival is inactive: 84%. In the case of `COc1ccc(C)c2sc(N(Cc3cccnc3)C(=O)COc3ccccc3)nc12`, the survival was inactive: 87%. Under `COc1ccc(NC(=O)c2c(NCc3cccc(OC)c3)sc3c2CCC3)cc1` stands inactive: 65%; under `CCc1ccc(S(=O)(=O)Nc2cc(-c3cn4ccccc4n3)ccc2C)cc1`, inactive: 94%. The value for `Cc1ccc(-n2ncc3c(N4CCN(C)CC4)ncnc32)cc1` was inactive: 55%; that for `Cc1ccc2c(c1)N(C(=O)N1CCC(C(=O)NC3CCCCCC3)CC1)CCO2` was inactive: 82%; that for `COc1cc(OC)cc(C(=O)NCc2ccc3c(c2)CCN3C(=O)c2ccccc2)c1` was inactive: 84%. Regarding `O=C(Cn1nc(C(F)F)cc1C1CC1)NCCC1=CCCCC1`, the survival is inactive: 117%. The value for `CN(C)c1ccc(-c2nc(-c3ccncc3)no2)cc1[N+](=O)[O-]` was inactive: 62%; that for `NC(=O)CSc1ncnc2c1cnn2-c1ccccc1` was inactive: 110%; that for `COc1ccc(Cn2c(C(=O)O)c(CNC3CCC(C)CC3)c3ccc(C)cc32)cc1` (stereo unspecified) was inactive: 111%.

Take `COc1cc(C(=O)N2CCC(c3ccncc3)CC2)cc(OC)c1OC`: the survival was inactive: 78%. For `CCOc1ccc(Nc2c(S(=O)(=O)c3ccc(C)cc3)cnc3ccc(OC)cc23)cc1`, the survival is inactive: 73%. As for `C/C(=N\NC(=O)CCc1ccccc1)c1cccc(N)c1`, the survival is inactive: 108%. The value for `COc1ccc(CC(=O)N2CC(=O)Nc3ccc(Br)cc3C2c2ccc(F)cc2)cc1OC` (stereo unspecified) was inactive: 137%; that for `CCc1c(C)nc2cc(-c3ccc(OC)c(OC)c3)nn2c1NCC(C)(C)CN(C)C` was inactive: 109%; that for `COc1cc2nc(NCc3ccccc3Cl)n3nc(-c4cccnc4)nc3c2cc1OC` was inactive: 121%.

Turning to `CC(=O)N1CCCc2cc(S(=O)(=O)NCc3ccc(N(C)C)cc3)ccc21`, the survival was inactive: 72%. The value for `COc1cccc(CNC(=O)c2cc(-c3cccs3)nc3ccccc23)c1` was inactive: 87%; that for `COCCCNC(=O)CSc1nc2nc(C)c(Cc3ccccc3Cl)c(C)n2n1` was inactive: 83%. Under `Cn1nc(-c2ccccc2)c(-c2ccccc2)c(C(=O)Nc2ccc(S(N)(=O)=O)cc2)c1=O` stands inactive: 90%. Under `COc1cccc(C(=O)Nc2ccc3nc(SCc4ccc(C)cc4)sc3c2)c1` stands inactive: 78%. Consider `Cc1cccc(-n2c(SCC(=O)Nc3ccccc3Cl)nc3n[nH]c(C)c3c2=N)c1`, for which the survival is inactive: 72%. `CC(C)(Oc1ccc(Cl)cc1)C(=O)Nc1ccc(Cl)cn1`: the survival is inactive: 119%. Under `CSc1ccc(CCNC(=O)c2sc3ncccc3c2-n2cccc2)cc1` stands inactive: 74%; under `O=C(NCC(c1cccnc1)N1CCOCC1)C(=O)Nc1cccc(Cl)c1` (stereo unspecified), inactive: 85%.

For the compound `COc1ccc(C(c2nnnn2C(C)(C)C)N2CCN(c3ccccc3)CC2)cc1` (stereo unspecified), the survival was inactive: 104%.

On to `CCOc1ccc(NC(=O)CN2C(=O)CCSc3ccc(S(=O)(=O)N4CCCC4)cc32)cc1`, for which the survival is inactive: 71%. The value for `COc1cccc(-n2cc(C(=O)NCCc3cccc(C)c3)c3ccccc3c2=O)c1` was inactive: 89%; that for `Cc1cc(C)nc(Nc2nc3ccccc3s2)n1` was inactive: 109%. Under `Cc1ccc(C)c(N2CCN(C(=O)C(C)n3nc(C)c4sc5ccccc5c4c3=O)CC2)c1` (stereo unspecified) stands inactive: 110%. Turning to `COC(=O)c1ccc(NC(=O)N2CCc3c([nH]c4ccccc34)C2c2ccc(C)cc2)cc1` (stereo unspecified), the survival is inactive: 100%.

In the case of `CC(C)c1cc2cc(/C=C/C(=O)O)c(O)cc2o1`, the survival was inactive: 39%. The value for `COc1ccccc1CNC(=O)C1CCN(c2nn3c(=O)cc(C)nc3s2)CC1` was inactive: 83%; that for `O=C(NCc1ccccc1Cl)C(=O)NCC(c1ccco1)S(=O)(=O)c1cccs1` (stereo unspecified) was inactive: 47%.

Regarding `COc1ccc(Cn2c(=O)c3oc4ccccc4c3n(CC(=O)Nc3cc(C)cc(C)c3)c2=O)cc1`, the survival was inactive: 90%. The value for `Cc1c2cnn(CC(=O)NCCc3ccccc3)c(=O)c2c(C)n1Cc1ccccc1Cl` was inactive: 97%; that for `CCC1CCCCN1CCCNC(=O)c1ccc2c(c1)N(Cc1cccc(C)c1)C(=O)c1ccccc1S2(=O)=O` (stereo unspecified) was inactive: 126%; that for `CCC1CCCCN1CCCNC(=O)c1cc2c(Cl)nc3ccc(C)cc3c2s1` (stereo unspecified) was inactive: 66%. In the case of `CCc1ccc(NC(=O)CSc2nc(=O)n(Cc3cccnc3)c3c2CCC3)cc1`, the survival is inactive: 74%. The value for `COc1cc(C(=O)NCC(c2ccc(N(C)C)cc2)N2CCCC2)cc(OC)c1OC` (stereo unspecified) was inactive: 53%; that for `COc1ccc(/C=C(\C#N)c2nc(-c3ccc(Cl)c(Cl)c3)cs2)cc1OC` was inactive: 77%. Under `Cc1ccc(S(=O)(=O)N(C)c2ccc3sc(C)nc3c2)cc1` stands inactive: 111%; under `CCOc1ccc(NC(=O)CSc2nc3nc(C)c(Cc4ccccc4)c(C)n3n2)cc1`, inactive: 85%. The value for `CCc1ccccc1NC(=O)CSc1nc2c(oc3ccccc32)c(=O)n1-c1ccccc1` was inactive: 89%; that for `O=C(COc1ccccc1F)NC1CC(=O)N(c2ccc3c(c2)OCCO3)C1` (stereo unspecified) was inactive: 86%.

With `Cc1ccc(-c2nc3ccc(Br)cn3c2Nc2ccc3c(c2)OCO3)o1`, the survival was inactive: 61%. On to `CCOc1ccccc1CNS(=O)(=O)c1cnc(N)nc1`, for which the survival is inactive: 55%. The value for `COc1ccccc1Cn1c(CNS(=O)(=O)c2ccc(Cl)s2)nc2cccnc21` was inactive: 73%; that for `CC1=NC(C)(C)Cc2ccccc21` was inactive: 106%. The value for `CC(=O)c1cccc(NC(=O)Cn2cnc3c2c(=O)n(C)c(=O)n3C)c1` was inactive: 67%; that for `OCCCNC(c1ccccc1)c1ccc(O)cc1` (stereo unspecified) was inactive: 101%.

For `CCC(=O)N1CCc2cc(Br)cc(S(=O)(=O)N3CCCC(C(=O)Nc4ccc(CC)cc4)C3)c21` (stereo unspecified), the survival was inactive: 89%. Under `CCOC(=O)c1cccc(NC(=O)Cc2ccc(NC(=O)N3CCCCc4ccccc43)cc2)c1` stands inactive: 88%.
